About 2,200 (0.71%) of roughly 310,000 compounds showed an effect of 50% or more. The effect is printed as a negative number. This is one part of the list.
molecular target: human ether-à-go-go-related gene (hERG) potassium channel (human, UniProt Q12809); assay: primary screen, population patch clamp on CHO cells stably expressing hERG
Sequence (Q12809 whole entry, looked up): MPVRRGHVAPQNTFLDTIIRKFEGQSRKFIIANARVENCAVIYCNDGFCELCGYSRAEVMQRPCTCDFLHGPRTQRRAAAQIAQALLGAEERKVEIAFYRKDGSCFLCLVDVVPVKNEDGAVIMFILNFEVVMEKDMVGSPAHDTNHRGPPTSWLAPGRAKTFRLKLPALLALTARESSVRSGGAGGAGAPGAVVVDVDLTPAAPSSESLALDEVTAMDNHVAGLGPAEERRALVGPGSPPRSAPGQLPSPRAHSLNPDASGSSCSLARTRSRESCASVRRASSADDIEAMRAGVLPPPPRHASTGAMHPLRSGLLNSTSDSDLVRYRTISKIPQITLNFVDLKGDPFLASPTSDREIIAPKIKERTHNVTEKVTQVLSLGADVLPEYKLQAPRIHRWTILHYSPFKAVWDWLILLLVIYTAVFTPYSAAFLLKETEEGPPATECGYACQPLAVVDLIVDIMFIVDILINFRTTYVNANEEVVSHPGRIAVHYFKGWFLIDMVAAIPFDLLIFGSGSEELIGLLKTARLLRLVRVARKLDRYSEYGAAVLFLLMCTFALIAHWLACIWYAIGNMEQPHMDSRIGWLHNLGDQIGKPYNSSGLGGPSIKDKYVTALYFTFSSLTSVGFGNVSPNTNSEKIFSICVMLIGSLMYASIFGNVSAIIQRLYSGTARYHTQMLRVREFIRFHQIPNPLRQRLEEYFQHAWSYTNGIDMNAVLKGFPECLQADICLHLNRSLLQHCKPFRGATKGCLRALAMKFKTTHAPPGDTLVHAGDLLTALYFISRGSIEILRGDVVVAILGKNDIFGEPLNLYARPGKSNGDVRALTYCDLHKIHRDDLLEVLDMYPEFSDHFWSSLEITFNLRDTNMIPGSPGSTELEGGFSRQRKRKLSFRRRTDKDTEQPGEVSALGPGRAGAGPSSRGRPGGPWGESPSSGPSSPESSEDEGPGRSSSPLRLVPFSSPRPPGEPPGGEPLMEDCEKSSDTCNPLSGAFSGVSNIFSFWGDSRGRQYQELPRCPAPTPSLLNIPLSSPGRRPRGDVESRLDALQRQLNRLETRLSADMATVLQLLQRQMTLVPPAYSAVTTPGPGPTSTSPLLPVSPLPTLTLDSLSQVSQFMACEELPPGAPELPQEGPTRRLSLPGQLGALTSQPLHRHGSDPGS

| SMILES | hERG current change (%, negative = inhibition) at 1uM |
| --- | --- |
| CCc1ccc(C(=O)NNC(=O)CN2C(=O)NC3(CCCC3)C2=O)cc1 | 12.5% |
| Cc1ccc(NC(=O)N2CCCC(c3ccccc3)C2)cc1 (centres unmarked) | 10.7% |
| Cc1ccccc1NS(=O)(=O)c1ccc(C(=O)NCC(c2ccco2)N(C)C)cc1 (centres unmarked) | 3.75% |
| C/C(=N\NC(=O)c1ccn(C)n1)c1ccc(NC(=O)C2CCC2)cc1 | 5.31% |
| COc1ccc2c(CCNC(=O)CN3C(=O)c4ccccc4C3=O)c[nH]c2c1 | 10% |
| Cl.O[Si](CCCN1CCCCC1)(c1ccc(F)cc1)C1CCCCC1 (centres unmarked) | -12.5% |
| CCOC(=O)C1Sc2ccccc2NC1=O (centres unmarked) | 10.4% |
| O=C(NC1CCCc2ccccc21)C1CCN(S(=O)(=O)c2cccc3nsnc23)CC1 (centres unmarked) | 3.86% |
| CCOC(=O)N1CCN(C(=O)CSc2nnc(-c3ccccc3OC)o2)CC1 | 3.24% |
| O=C(CC1C(=O)NCCN1Cc1ccc(F)c(F)c1)NCCn1cccn1 (centres unmarked) | 7.59% |
| CNC(=O)c1ccc(NC(=O)CCc2c(C)noc2C)cc1 | 15.8% |
| Cc1ccc(NC2CCCN(C(=O)c3c(C)noc3C)C2)cc1C (centres unmarked) | -1.97% |
| Cc1nc2sccn2c(=O)c1S(=O)(=O)Nc1ccc(N2CCN(C(=O)C(C)C)CC2)cc1 | 7.18% |
| CN1CC=C2C(C#N)=C(N)C(C#N)(C#N)[C@H](c3cccs3)[C@H]2C1 | 8.7% |
| Cc1ccc2c(c1)C1(OCCCO1)C(=O)N2 | 16.5% |
| CC(C)Oc1ccc(C(=O)Nc2nc3ccccc3[nH]2)cc1 | 14.8% |
| COc1ccc(N(C(=O)c2ccc(S(=O)(=O)N3CCCC3)cc2)C2C=CS(=O)(=O)C2)cc1 (centres unmarked) | -4.54% |
| CCOC(=O)c1ccc(NC(=O)c2nc[nH]c2C(=O)NCCCCCNC(=O)OC(C)(C)C)cc1 | 11.5% |
| CCOC(=O)c1sc2nc(SCC(=O)N(CC)CC)n(CCCN3CCCC3=O)c(=O)c2c1C | 1.77% |

| SMILES | hERG current change (%, negative = inhibition) at 1uM |
| --- | --- |
| CN(C)S(=O)(=O)Oc1ccsc1C(=O)Nc1ccc(Cl)c(Cl)c1 | 16.9% |
| CCN(CC)c1ccc(/C=N/NC(=O)CCC(=O)NCc2ccccc2)c(O)c1 | 20.6% |
| Nc1c(-c2ccc(Cl)cc2)cnn1-c1cccc(C(F)(F)F)c1 | 12.8% |
| O=C1c2ccccc2C(O)(Cc2ccccc2)N1CCCN1CCOCC1 (centres unmarked) | 14.3% |
| COC(=O)Cc1c(C)nc2nc(-c3cccnc3)[nH]n2c1=O | 16.5% |
| Cc1nc(NC(=O)CSc2nccn2C)sc1C(=O)N(C)C | 10.5% |
| CCOC(=O)CN(c1ccccc1C)S(=O)(=O)c1ccc(Cl)cc1 | -3.59% |
| CCn1nc(C(=O)OCC(=O)NC(C)C)c2ccccc2c1=O | 9.96% |
| O=C(CSc1ccc(-c2ccco2)nn1)c1ccccc1 | 7.08% |
| O=C(NCCN1CCNC1=O)C1CCC(=O)N(CCc2ccccc2)C1 (centres unmarked) | 6.81% |
| Cc1oc(-c2ccccc2F)nc1CS(=O)CC(=O)NCc1ccc(Cl)cc1 (centres unmarked) | -0.439% |
| CCn1ccc(C(=O)Nc2ccccc2Cl)n1 | 7.26% |
| Cc1sc(NC(=O)CSc2nc(N)n(CC(=O)c3ccccc3)n2)c(C#N)c1C | 7.69% |
| COc1cccc(C(=O)OCn2nnc3ccccc3c2=O)c1OC | 15.7% |
| CC(=O)c1ccc(N2CCN(C(=O)COc3ccccc3F)CC2)c(F)c1 | -11.1% |
| COc1cccc(CNC(=O)C2CCN(S(=O)(=O)c3ccc(-n4cnnn4)cc3)CC2)c1 | -14% |
| Cc1nc(SCCC(C)C)c([N+](=O)[O-])[nH]1 | 12.9% |
| O=C(CNC(=O)c1nc[nH]c1C(=O)N1CCN(c2ccccc2)CC1)OCc1ccccc1 | -4.06% |
| O=C(O)c1cccc(CSc2nnc(-c3ccco3)o2)c1 | 13.9% |

| SMILES | hERG current change (%, negative = inhibition) at 1uM |
| --- | --- |
| O=C(NCCN1CCOCC1)c1cnn2c(-c3ccccc3)cc(-c3ccccc3)nc12 | -11.5% |
| COc1cccc(NC(=O)CSc2nnc(-c3ccoc3C)n2C)c1 | 13.1% |
| O=C1C=C(c2ccc3c(c2)OCO3)C[C@@H](c2ccc(F)cc2)C1 | 16.3% |
| COc1cc(CN2CCC(Oc3cc(C(=O)NC4CC4)ccc3OC)CC2)cc(OC)c1 | -62% |
| Cc1noc(C)c1COC(=O)Cn1c(C)nc2ccccc21 | 12.1% |
| CCOc1ccccc1N(CC(=O)Nc1ccc(S(=O)(=O)N2CCCC2)cc1)S(C)(=O)=O | -1.6% |
| CC1CCC(NC(=O)c2ccc(CNc3c(NC4CCCCC4)c(=O)c3=O)cc2)CC1 (centres unmarked) | 11.7% |
| O=C(NC(=O)c1ccccc1)Nc1ccc(Cl)cn1 | 8.42% |
| COc1ccnc(CN(C)C(=O)C2CCC(=O)N(Cc3cccc(C(F)(F)F)c3)C2)c1 (centres unmarked) | 1.07% |
| Cl.NCCCCCc1nnc(SCc2ccc(Cl)cc2Cl)o1 | 1.56% |
| COc1cc(-c2noc(C)c2-c2ccc3[nH]ccc3c2)cc(OC)c1OC | 17.7% |
| NC(=O)C1=C[C@@H](C2CCCCC2)C[C@@H](OCc2ccc(CO)cc2)O1 | 0.0716% |
| O=C(/C=C/c1ccccc1)N(Cc1ccc(Cl)cc1)C1CCS(=O)(=O)C1 (centres unmarked) | 5.2% |
| Cc1cccc(OCC(=O)Nc2ccccc2C(F)(F)F)c1 | 4.97% |
| Cc1cc(=O)c(C(=O)Nc2cccc(N3CCCC3=O)c2)nn1-c1ccccc1Cl | 3.17% |
| O=C(N/N=C/c1cccc2cccnc12)[C@H]1C[C@@H]1c1ccccc1 | 11.7% |
| Cc1ccccc1Cn1cc(NC(=O)c2noc(C(C)C)c2[N+](=O)[O-])cn1 | 16.4% |
| COC(=O)c1ccc(NC(=O)c2ccc(N(C)S(C)(=O)=O)cc2)cc1 | 3.32% |

From paper PMC4336329 (PLoS ONE, 2015)
